Measurements as given in PubChem BioAssay AID1645882 (National Center for Advancing Translational Sciences (NCATS), 2021).
The campaign covered roughly 16,000 compounds. About 120 (0.75%) were called active. Inconclusive results (about 4%) are left out. Calls follow the shape of the dose curve; as a rule, active = well fitted inhibition curve with a large enough effect; inconclusive = small, poorly fitted or top-dose-only effect; inactive = no such curve, though single readings can be large or run the other way. This is one part of the list.

molecular target: Rap guanine nucleotide exchange factor 3 (Homo sapiens) (UniProt O95398); assay: Validation qHTS for antagonist of cAMP-regulated guanine nucleotide exchange factor 3 (EPAC1); details: EPAC1 Rap1B-BODIPY-GDP exchange, fluorescence; series mostly up to 150 µM; activity change, negative = inhibition: at the top concentration;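 also: plate controls were DMSO for no effect and ATA control for full effect; nearly all actives have a fitted effect of over 75% in size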
How it was run: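 EPAC1 (100 nM) mixed with 250 nM RAP1B-BODIPY-GDP and 50 uM GDP; compounds in concentration series, 5 min at room temperature. Fluorescence (ex 480/em 540 nm) read every 5 min for 30 min; normalized to ATA control and DMSO.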

UniProt O95398, sequence (O95398 whole entry, looked up): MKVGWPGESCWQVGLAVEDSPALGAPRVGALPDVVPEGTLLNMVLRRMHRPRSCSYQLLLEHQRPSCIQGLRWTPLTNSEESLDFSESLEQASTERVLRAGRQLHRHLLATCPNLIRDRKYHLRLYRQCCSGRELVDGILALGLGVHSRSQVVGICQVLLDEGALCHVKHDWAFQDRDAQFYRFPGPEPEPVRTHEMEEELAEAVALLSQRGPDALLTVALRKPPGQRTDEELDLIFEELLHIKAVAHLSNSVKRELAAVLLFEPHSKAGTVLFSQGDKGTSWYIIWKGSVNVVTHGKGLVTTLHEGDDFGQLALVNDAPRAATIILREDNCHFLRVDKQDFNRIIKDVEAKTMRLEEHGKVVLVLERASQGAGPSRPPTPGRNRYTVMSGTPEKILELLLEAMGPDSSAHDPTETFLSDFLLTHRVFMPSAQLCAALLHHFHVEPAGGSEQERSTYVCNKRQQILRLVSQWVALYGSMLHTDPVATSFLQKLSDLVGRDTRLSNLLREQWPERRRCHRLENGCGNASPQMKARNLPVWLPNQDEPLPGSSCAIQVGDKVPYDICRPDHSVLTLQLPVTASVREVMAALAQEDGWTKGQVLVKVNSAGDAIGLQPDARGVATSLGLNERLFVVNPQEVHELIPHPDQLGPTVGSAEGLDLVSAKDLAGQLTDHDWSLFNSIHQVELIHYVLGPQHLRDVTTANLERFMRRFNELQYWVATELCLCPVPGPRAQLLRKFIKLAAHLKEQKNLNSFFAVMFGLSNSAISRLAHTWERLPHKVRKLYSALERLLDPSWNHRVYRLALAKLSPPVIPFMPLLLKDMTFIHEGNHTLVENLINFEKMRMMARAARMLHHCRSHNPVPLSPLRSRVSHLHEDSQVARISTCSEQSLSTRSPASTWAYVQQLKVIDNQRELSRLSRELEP

Question: For `C=C1C2C[C@]3(C4CC5[C@@]6(C)CC[C@H](O)[C@@]5(C3CC2=O)C4[N+]([O-])(CC)C6)[C@@H]1O` (some centres not stated), which “activity change, negative = inhibition” value is on record?
Answer: inactive: 2.39%

Question: With `COc1ccc2[nH]c3c(c2c1)CCNC3C` (configuration not stated) as the compound, how does the “activity change, negative = inhibition” value read?
Answer: inactive: -1.64%

Question: With `COc1ccc(C(CN(C)C)C2(O)CCCCC2)cc1` (configuration not stated) as the compound, how does the activity change, negative = inhibition read?
Answer: inactive

Question: With `CCCSc1cc(OC)c(CCN)cc1OC` as the compound, how does the “activity change, negative = inhibition” value read?
Answer: inactive: 27.2% [at 320 µM]

Question: For `CN1CC[C@@]2(CCCN(C(=O)c3csnn3)C2)C1`, which “activity change, negative = inhibition” value is on record?
Answer: inactive: 11.4%

Question: `CCN(CCCl)Cc1ccccc1Br` was tested. Which “activity change, negative = inhibition” value did it give?
Answer: inactive: -4.09% [at 75.8 µM]

Question: `C[N+]1(C)[C@@H]2CC[C@H]1CC(OC(=O)c1c[nH]c3ccccc13)C2` (some centres not stated) was tested. Which “activity change, negative = inhibition” value did it give?
Answer: inactive: -1.58%

Question: How did the “activity change, negative = inhibition” value turn out when `Cc1o[nH]c(=O)c1CC(N)C(=O)O` (configuration not stated) was run?
Answer: inactive: 0.255% [at 75.8 µM]

Question: For `CC1(C)C(=O)[C@@H]2OC2[C@@]2(C)C1CC(O)[C@]1(C)C2CC[C@@]2(C)C(c3ccoc3)OC(=O)C3OC312` (some centres not stated), which “activity change, negative = inhibition” value is on record?
Answer: inactive: 7.42%

Question: How did the “activity change, negative = inhibition” value turn out when `CC1=C(O)C(=O)[C@H]2O[C@@H]2C1=O` was run?
Answer: inactive: 14.5%

Question: `O=C(c1csnn1)N1CCC[C@@]2(CCN(Cc3ccncc3)C2)C1` was tested. Which “activity change, negative = inhibition” value did it give?
Answer: inactive: 22.1%

Question: How did the “activity change, negative = inhibition” value turn out when `CCNCC(O)c1cccc(O)c1` (configuration not stated) was run?
Answer: inactive: 16.2% [at 75.8 µM]

Question: `O=C(CS(=O)C(c1ccccc1)c1ccccc1)NO` (configuration not stated) was tested. Which “activity change, negative = inhibition” value did it give?
Answer: inactive: -9.05%

Question: `CN1CCc2cc3c(cc2C1O)OCO3` (configuration not stated) was tested. Which “activity change, negative = inhibition” value did it give?
Answer: inactive: 6.56%

Question: Which activity change, negative = inhibition does the source give for `CP(=O)(O)CCCN` here?
Answer: inactive

Question: Which “activity change, negative = inhibition” value does the source give for `COc1cc2c(cc1O)-c1c(O)c(OC)cc3c1[C@H](C2)N(C)CC3` here?
Answer: inactive: -6.09%

Question: With `CC(n1cc(C[C@H](N)C(=O)O)c2ccccc21)n1cc(C[C@H](N)C(=O)O)c2ccccc21` as the compound, how does the “activity change, negative = inhibition” value read?
Answer: inactive: 5.04%

Question: How did the “activity change, negative = inhibition” value turn out when `COC1=CC23CCCN2CCc2cc4c(cc2C3C1O)OCO4` (configuration not stated) was run?
Answer: inactive: -8.2%

Question: `O=C(C[C@@H]1NCCC[C@H]1O)Cn1cnc2cc(Br)c(Cl)cc2c1=O` was tested. Which “activity change, negative = inhibition” value did it give?
Answer: inactive: 22.7%

Question: How did the “activity change, negative = inhibition” value turn out when `NP(N)(=O)NC(=O)c1ccc(F)cc1` was run?
Answer: inactive: 15.2%

Question: With `CC[n+]1c(-c2ccccc2)c2cc(N)ccc2c2ccc(N)cc21` as the compound, how does the activity change, negative = inhibition read?
Answer: inactive

Question: Which “activity change, negative = inhibition” value does the source give for `N[C@H](CP(=O)(O)O)C(=O)O` here?
Answer: inactive: 5.73%

Question: For `C[C@]12CC[C@H]3[C@@H](C[C@H](F)C4=CC(=O)CC[C@@]43C)[C@@H]1CC[C@@H]2O`, which “activity change, negative = inhibition” value is on record?
Answer: inactive: 14.7%

Question: With `Oc1ccc2c3c1O[C@H]1c4oc5ccccc5c4C[C@@]4(O)C(C2)N(CC2CC2)CCC314` (some centres not stated) as the compound, how does the “activity change, negative = inhibition” value read?
Answer: inactive: 12.8% [at 75.8 µM]

Question: For `CCCCC1C(=O)NC(=O)N(C2CCCCC2)C1=O` (configuration not stated), which “activity change, negative = inhibition” value is on record?
Answer: inactive: 32.4%

Question: Which “activity change, negative = inhibition” value does the source give for `COc1ccc(C(=O)O)cc1OC` here?
Answer: inactive: 6.46%

Question: How did the activity change, negative = inhibition turn out when `COc1ccc2[nH]cc(C3=CCNCC3)c2c1` was run?
Answer: inactive

Question: Which “activity change, negative = inhibition” value does the source give for `NCC(=O)c1ccccc1` here?
Answer: inactive: 21.2%

Question: How did the “activity change, negative = inhibition” value turn out when `Clc1ccc(C(Cn2ccnc2)OCc2csc3c(Cl)cccc23)c(Cl)c1` (configuration not stated) was run?
Answer: inactive: 3.84% [at 75.8 µM]

Question: With `CCOC(=O)c1ncn2c1CN(C)C(=O)c1c(I)cccc1-2` as the compound, how does the “activity change, negative = inhibition” value read?
Answer: inactive: 57.8%

Question: How did the “activity change, negative = inhibition” value turn out when `O=C(Nc1ccccc1)N1CC[C@@]2(CCCN(C(=O)Oc3ccccc3)C2)C1` was run?
Answer: inactive: 4.63%

Question: `O=C(O)Cc1ccccc1` was tested. Which “activity change, negative = inhibition” value did it give?
Answer: inactive: 21.4%

Question: Which “activity change, negative = inhibition” value does the source give for `ClC(Cl)(Cl)Cl` here?
Answer: inactive: 26%

Question: For `Clc1cccc(SC2CCNCC2)n1`, which activity change, negative = inhibition is on record?
Answer: inactive

Question: How did the “activity change, negative = inhibition” value turn out when `CCNC(=O)[C@@H]1O[C@@H](n2cnc3c(N)ncnc32)[C@H](O)[C@H]1O` was run?
Answer: inactive: 11.7%

Question: `O=C(O)[C@H]1[C@H]2CN[C@H](C(=O)O)[C@H]21` was tested. Which activity change, negative = inhibition did it give?
Answer: inactive

Question: `COc1ccc(C(=O)c2c(C)n(CCN3CCOCC3)c3ccccc23)cc1` was tested. Which “activity change, negative = inhibition” value did it give?
Answer: inactive: 5.32%

Question: `CNC(=O)OCC[N+](C)(C)C` was tested. Which “activity change, negative = inhibition” value did it give?
Answer: inactive: -1.8%

Question: For `CN1C(=O)[C@@H](NC(=O)c2cc3ccccc3[nH]2)N=C(c2ccccc2)c2ccccc21`, which “activity change, negative = inhibition” value is on record?
Answer: inactive: -10.7%

Question: For `c1cc2c(c(N3CCNCC3)c1)OCCO2`, which “activity change, negative = inhibition” value is on record?
Answer: inactive: 22.4%

Question: With `CCS(=O)(=O)C(C)(C)S(=O)(=O)CC` as the compound, how does the “activity change, negative = inhibition” value read?
Answer: inactive: 9.32%

Question: With `CC[C@H]1C2CC3[C@@H]4N(C)c5ccccc5[C@]45C[C@@H](C2[C@H]5O)N3[C@@H]1O` (some centres not stated) as the compound, how does the “activity change, negative = inhibition” value read?
Answer: inactive: 9.98%

Question: With `c1ccc(CCCN2CCN(CCOC(c3ccccc3)c3ccccc3)CC2)cc1` as the compound, how does the activity change, negative = inhibition read?
Answer: inactive

Question: For `C[C@@H](C(=O)OC1C[C@H]2CC[C@@H](C1)N2C)c1ccc(Br)cc1` (some centres not stated), which “activity change, negative = inhibition” value is on record?
Answer: inactive: -1.09%

Question: For `CN1CCCC2(CCN(C(=O)Oc3ccccc3)CC2)C1`, which “activity change, negative = inhibition” value is on record?
Answer: inactive: 11%

Question: How did the “activity change, negative = inhibition” value turn out when `CN(C)CCc1c[nH]c2cccc(OP(=O)(O)O)c12` was run?
Answer: inactive: 26.3% [at 320 µM]

Question: For `O=C(O)/C=C\C(=O)O`, which “activity change, negative = inhibition” value is on record?
Answer: inactive: 26.9%

Question: With `c1ccc(N2CC3(CCNCC3)C2)nc1` as the compound, how does the “activity change, negative = inhibition” value read?
Answer: inactive: 14.5%

Question: With `CCS(=O)CCSP(=O)(OC)OC` (configuration not stated) as the compound, how does the “activity change, negative = inhibition” value read?
Answer: inactive: 9.03%

Question: For `CCCn1c(C)c(C(=O)c2ccc3ccccc3c2)c2ccccc21`, which “activity change, negative = inhibition” value is on record?
Answer: inactive: 0.954% [at 75.8 µM]

Question: For `C[C@]12CCC(=O)C=C1CC[C@@H]1[C@@H]2CC[C@@]2(C)[C@H]1CC[C@]2(C)O`, which activity change, negative = inhibition is on record?
Answer: inactive

Question: `CC(C)NCC(O)c1ccc(N)c(C#N)c1` (configuration not stated) was tested. Which activity change, negative = inhibition did it give?
Answer: inactive

Question: For `C[C@H]1CC[C@@H]2N(C1)C[C@H]1[C@@H]3C[C@H]4[C@@H](CC(=O)[C@H]5C[C@@H](O)CC[C@@]54C)[C@@H]3CC[C@H]1[C@]2(C)O`, which “activity change, negative = inhibition” value is on record?
Answer: inactive: 9.57%

Question: With `CCC(OC(C)=O)C(CC(C)NC)(c1ccccc1)c1ccccc1` (configuration not stated) as the compound, how does the “activity change, negative = inhibition” value read?
Answer: inactive: -0.531% [at 320 µM]

Question: With `CNCC(O)c1ccc(O)cc1` (configuration not stated) as the compound, how does the activity change, negative = inhibition read?
Answer: inactive

Question: `CC(=O)C1CC[C@H]2C3CC[C@@H]4CC(O)CC[C@@]4(C)C3CC[C@]12C` (some centres not stated) was tested. Which “activity change, negative = inhibition” value did it give?
Answer: inactive: -6.27%

Question: For `c1ccc(N2CCCC3(CCNCC3)C2)cc1`, which “activity change, negative = inhibition” value is on record?
Answer: inactive: 19.3%
